Laboratory results taken from the BET-seq Pho4 binding data (Le et al. 2018).
The list shows a part of the results. Values were computed here from the reads of four pooled replicates and scatter widely.

target: T1, Pho4 (S. cerevisiae) (UniProt P07270); assay: relative binding free energy (BET-seq); higher = weaker binding; conditions: reference: library average
T1 sequence: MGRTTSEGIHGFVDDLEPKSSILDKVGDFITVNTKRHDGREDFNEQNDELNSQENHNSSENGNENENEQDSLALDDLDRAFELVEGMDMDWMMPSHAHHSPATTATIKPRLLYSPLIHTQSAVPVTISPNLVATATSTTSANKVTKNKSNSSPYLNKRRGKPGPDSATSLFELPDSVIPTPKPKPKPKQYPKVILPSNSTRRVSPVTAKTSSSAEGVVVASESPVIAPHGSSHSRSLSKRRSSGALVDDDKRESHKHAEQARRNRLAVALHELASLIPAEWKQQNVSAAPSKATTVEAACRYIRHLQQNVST

Sequence | relative binding free energy [kcal/mol]
TTAGACACGTGGGCGA | -0.13
CCGTTCACGTGATGTT | 0.44
GGCTACACGTGGTGTA | -0.03
CGTGACACGTGTATGG | 0.07
TTAAGCACGTGGGCAT | -0.21
TTTCACACGTGAGGGC | 0.51
GAAGTCACGTGAGTTG | 0.23
TAGGTCACGTGGTCTA | -0.05
CTATACACGTGGTGGA | -0.04
CGGTTCACGTGGGCCT | 0.33
TGGCGCACGTGCTGGG | -0.23
TATGTCACGTGATAAA | 0.1
CCTGTCACGTGGTGTA | 0.04
TTTGGCACGTGCGGCT | -0.28
GGGGGCACGTGCGTGT | -0.14
TGCATCACGTGGGCTT | 0.1
CGCGGCACGTGTGTAT | 0
AAGATCACGTGGGGGC | 0
GGTAACACGTGATGGC | 0.14
TGCTCCACGTGGGTTT | -0.07
AGGAGCACGTGAGCAG | 0.2
GAGGACACGTGTGGGT | 0.14
ATTTTCACGTGGTGCT | 0.28
GCGCGCACGTGTTGTG | -0.11
TCTTGCACGTGGGGCT | -0.1
GGTCGCACGTGTTTGG | 0.07

Sequence | relative binding free energy [kcal/mol]
GATTTCACGTGGTTTC | 0.23
TTTCTCACGTGAGGGA | 0.34
GTGTTCACGTGCCGGA | 0.18
TATAGCACGTGTTGAT | -0.01
TGGTGCACGTGGAGTC | 0.04
GTGCGCACGTGGAGAT | 0
CGGGTCACGTGGTAAG | 0.19
CGGGGCACGTGCGGGG | -0.28
CTAGTCACGTGTTCGG | 0.09
AGTTTCACGTGGATTT | 0.34
ATTATCACGTGAGCTT | 0.22
TTTGGCACGTGTTGAC | -0.04
GGCTGCACGTGTTGGT | 0.01
CTTAGCACGTGTCGGG | -0.06
TAGTTCACGTGTGTAG | 0.18
AGTTTCACGTGTCAGG | 0.39
TGTTGCACGTGCGTAG | -0.06
GTTTCCACGTGCGGTG | 0.14
GTGGTCACGTGATATC | 0.27
GTACGCACGTGGTAAG | 0.05
TTATTCACGTGTGGAA | 0.27
CTGTACACGTGCGGGG | -0.12
GTAAACACGTGTGAGA | 0.18
GCTGCCACGTGGGGTT | -0.21
GAGTGCACGTGCGAGT | 0.02
ATTACCACGTGGTAGT | -0.17

Sequence | relative binding free energy [kcal/mol]
TTTTGCACGTGCACGT | -0.12
CGGGCCACGTGTGATG | 0.12
GGCGTCACGTGTGCGA | 0.12
AGAAGCACGTGATGTA | 0.08
CTTTGCACGTGTATAG | 0
AGTGGCACGTGTAGAA | -0.04
AATTGCACGTGTATTT | 0.09
ATTCGCACGTGGGTTT | -0.14
CCTGACACGTGAGGGG | 0.22
CGCGTCACGTGGTTTA | 0.08
TGAGGCACGTGTCGTC | 0.06
GTGGTCACGTGTGATA | 0.29
TCTGTCACGTGAATTT | 0.37
GGTATCACGTGTCTGC | 0.22
TCGGTCACGTGTGATG | 0.11
TATATCACGTGAATTT | 0.36
ATTAACACGTGGGTCG | -0.11
GTCGACACGTGGGTTT | 0.05
ATCTACACGTGCGGGG | 0.17
GTTGTCACGTGTCTGT | 0.1
GGCAGCACGTGAGTAG | 0.36
TTTGTCACGTGTCTCT | 0.14
TGGCTCACGTGGGGCC | 0.11
TAAGTCACGTGCGGAA | 0.2
ATAAGCACGTGCGTTT | -0.07
AGGGCCACGTGTTGAT | -0.15

Sequence | relative binding free energy [kcal/mol]
GAGTGCACGTGAGGTG | 0.23
AGGGGCACGTGAAACT | 0.27
ATTATCACGTGGTATT | 0.06
TAAAGCACGTGTCGTG | -0.12
TCGTGCACGTGGACGG | -0.1
AGGGCCACGTGGGAAT | -0.12
AGAGTCACGTGTATTG | 0.18
GGTGACACGTGGGATG | -0.04
ACATGCACGTGTTTGT | -0.07
TAAATCACGTGTGTCG | 0.15
CGTTGCACGTGGTGAG | 0.03
TTAGGCACGTGAGACT | 0.09
ATGTACACGTGGATGA | 0.16
TGTTACACGTGTAGAT | 0.23
GTGTTCACGTGGTGAC | 0.35
TTTTTCACGTGTGATC | 0.36
GCGTTCACGTGGTAGC | 0.35
GTATGCACGTGTGACG | -0.03
CTCGTCACGTGGAGTT | 0.17
AATTTCACGTGAGGCG | 0.36
TAGAGCACGTGGCGAT | -0.15
AGGATCACGTGAAGCT | 0.44
GATTACACGTGAGGAT | 0.33
AGGATCACGTGTGTTA | 0.01
TTGCTCACGTGTTAAG | 0.28
CATTACACGTGAGGTT | 0.24

Sequence | relative binding free energy [kcal/mol]
AAGGGCACGTGGCAGA | -0.09
CTAGGCACGTGGGGTG | -0.23
AGTATCACGTGTGCAG | 0.17
GGTCGCACGTGGTGCG | -0.12
GTATTCACGTGTCATT | 0.38
CCGGTCACGTGATGTG | 0.21
CGGATCACGTGGGGTG | -0.1
ATGCTCACGTGAGGGG | 0.34
GGACACACGTGGGGTG | -0.11
TGTTGCACGTGGTCAG | -0.15
ATGGCCACGTGGGCGG | -0.23
GGCCTCACGTGTTTGG | 0.19
CTCGTCACGTGTGGTT | 0.05
GGTTGCACGTGGGTAA | -0.08
ATTTACACGTGAGGGA | 0.25
AGTTTCACGTGTCTAG | 0.14
AGATGCACGTGTGACG | 0.07
TCTTCCACGTGGTGGT | -0.13
ACAGGCACGTGGTAGT | -0.18
TTCATCACGTGAGATG | 0.28
GGCATCACGTGGGGTG | -0.09
ATGGCCACGTGTGATT | 0.15
TAGGACACGTGGAGTA | -0.07
TCGATCACGTGGTTAT | 0.18
GTTTGCACGTGCAGGG | 0.1
TGGTACACGTGTTAAA | 0.15

Sequence | relative binding free energy [kcal/mol]
TATTTCACGTGCGGTC | 0.38
CTGTACACGTGTGTGT | 0.08
ATGGACACGTGGTTGC | 0
CGTTTCACGTGTATGT | 0.16
TGGAACACGTGTTGCG | 0.11
TGGGGCACGTGAGAAT | 0.28
GGGCGCACGTGGCGTC | -0.1
TGTTGCACGTGAATAA | 0.13
ATTATCACGTGTCAGT | 0.32
CTAATCACGTGGGCGG | 0.04
TAAGTCACGTGGATGA | 0.1
AGAGACACGTGGGCTG | -0.12
CTATTCACGTGTATGT | 0.19
TTGATCACGTGGTATC | 0.11
AGTCACACGTGCGGTG | 0.03
ATTCGCACGTGTGATT | -0.08
GTTAACACGTGTTGTC | 0.23
CGTTTCACGTGGGCTT | 0.24
ATACGCACGTGCGGGG | -0.18
TTGAGCACGTGAACGT | 0.21
ATTTACACGTGTTCTT | 0.12
AGTAGCACGTGAAGAG | 0.27
GCTGGCACGTGATGGT | 0.07
AGATCCACGTGGGTTG | -0.11
TGGGGCACGTGTCAGT | -0.11
GTATGCACGTGTGCGA | -0.04

Sequence | relative binding free energy [kcal/mol]
ATGTACACGTGATATG | 0.02
TTCCGCACGTGAGTGT | 0.12
ACGTACACGTGGGTTA | -0.03
TAGGGCACGTGCTGGG | -0.13
ATAGTCACGTGGACGG | 0.2
ATATACACGTGTGGAG | 0
AGTTACACGTGTGTAG | 0.11
GGGGCCACGTGATATG | 0.03
TGTCTCACGTGGGACG | 0.13
GTTGCCACGTGGTGGA | -0.02
TTTAACACGTGTTTAG | 0
GAAAGCACGTGGGTCT | 0.03
GGGTGCACGTGTCTGT | 0.07
GGTGGCACGTGGTGTG | -0.09
GTTCGCACGTGGGTAG | -0.22
GTAATCACGTGGAGGA | 0.11
CTTGCCACGTGAGTGT | 0.18
TTGAGCACGTGGGTTT | -0.18
CTTGTCACGTGACGGG | 0.24
TTCATCACGTGTGGGT | 0.16
GCTGTCACGTGCGGGC | 0.15
TAGTTCACGTGTTTAT | 0.27
ATTTACACGTGAAGTG | 0.32
GTCGTCACGTGGTCTT | 0.01
GAGGTCACGTGGGACA | 0.16
CATGTCACGTGATTTA | 0.25

Sequence | relative binding free energy [kcal/mol]
GACGGCACGTGGGTAT | -0.19
CTGGACACGTGTTTTA | 0.03
TAAGTCACGTGTTATA | 0.16
TGTTACACGTGCTGGT | 0.02
GTTTTCACGTGTAGTA | 0.28
TTTTGCACGTGAGTGT | 0.17
GAGGTCACGTGGAGAT | 0.21
TTGTTCACGTGGGGAT | 0.22
ATGAACACGTGCGTGG | 0.08
GTGTGCACGTGTGTTA | 0.11
GGAAACACGTGTTGTA | 0
CGGTACACGTGCGGTT | 0.08
AGATTCACGTGGTTTA | 0.19
CGTGGCACGTGTGATA | -0.03
TATGCCACGTGTAATG | 0.16
AGGGACACGTGCTATG | 0
AGTTGCACGTGTTATA | 0
TTATACACGTGAATGT | 0.25
ATGTGCACGTGGCGTA | -0.12
TGAATCACGTGTGATT | 0.24
TGTGGCACGTGCATCG | -0.24
ATTGTCACGTGTAGTG | 0.18
CGTGCCACGTGGGTTT | -0.21
TATTTCACGTGGGAAA | 0.15
GCATGCACGTGGGTAG | -0.22
TGCTGCACGTGTATAT | -0.06

Sequence | relative binding free energy [kcal/mol]
GTTGGCACGTGGAATA | 0.05
GAGCGCACGTGGGTGG | -0.09
TCTTGCACGTGAAGTA | 0.31
GTAATCACGTGTACGG | 0.27
TATTGCACGTGGGTTA | -0.05
GATATCACGTGCGGGG | 0.2
TAAGGCACGTGATAGG | -0.07
AAGGGCACGTGACGGG | -0.05
TTGGTCACGTGAGCAA | 0.38
AAAGCCACGTGGGGGA | -0.13
ATAAACACGTGGGCGG | -0.18
GATCTCACGTGAGGGT | 0.41
TGGAACACGTGTGAGA | 0.1
TGCTTCACGTGGTCGT | 0.24
GGGGGCACGTGTTTAG | 0.07
GGCGTCACGTGGAGGA | 0.11
CAGGACACGTGGGAGT | -0.03
CGCGGCACGTGATTGG | -0.01
ATTGTCACGTGTTGCT | 0.03
AAGCTCACGTGGGTAG | 0.1
CGTATCACGTGGATGG | 0.09
GAGTGCACGTGGCTTA | 0.03
